This passage reports GI50 and TGI results from PubChem BioAssay (NCI).

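A five-concentration, 48-hour dose response in 96-well plates underlies each endpoint, interpolated linearly between surrounding concentrations. GI50: concentration for 50% inhibition of growth.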 For part of its entries the source gives two or more results. They are shown here; other results are not. An entry can have further records. For some assays here: Records of one sample usually come from different ranges of test concentrations, not given here; a value can be the end of its range.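 At the TGI there is no net growth.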 For some assays here: Values that stand side by side repeat one measurement (runs, samples, wells, individuals or studies). Records carry a tag for their origin. The letters are not those of the source and start again with each entry.

Test systems include 786-0 renal; A498 renal; A549 NSCLC; ACHN renal; BT-549 breast; CCRF-CEM leukemia; COLO 205 colon; EKVX NSCLC; HCC-2998 colon; HS 578T breast; LOX IMVI melanoma; M14 melanoma; MDA-MB-231 breast; MOLT-4 leukemia; NCI-H23 lung; OVCAR-3 ovarian; OVCAR-5 ovarian; OVCAR-8 ovarian; RPMI-8226 leukemia; SF-268 CNS; SF-539 CNS; SN12C renal; SW-620 colon; OVCAR-4 ovarian; PC-3 prostate; SK-MEL-28 melanoma; SK-OV-3 ovarian; HCT-15 colon; HL-60(TB) leukemia; IGROV1 ovarian; KM12 colon; MALME-3M melanoma; MDA-MB-435; NCI-H522 lung; SF-295 CNS; SK-MEL-2 melanoma; SK-MEL-5 melanoma; SR leukemia; U251 CNS; T-47D breast; NCI-H226 lung; SNB-19 CNS; HCT-116 colon; HOP-92 NSCLC; HT29 colon; NCI-H460 lung.

Common to all, as to assay: NCI-60 cell line screen, 48 h

With `COc1cc(C(=O)c2cnc(-c3cccc4[nH]ccc34)[nH]2)cc(OC)c1OC`, the GI50 with 786-0 renal is 134 nM and < 10 nM; with A549 NSCLC, 139 nM and < 10 nM; with ACHN renal, 392 nM and < 10 nM; in the assay with BT-549 breast it was 186 nM and < 10 nM; in the assay with CCRF-CEM leukemia it was 234 nM and < 10 nM; in the assay with COLO 205 colon, 134 nM and < 10 nM. The GI50 is 198 nM and < 10 nM with EKVX NSCLC; 189 nM and < 10 nM in the assay with HCC-2998 colon; 480 nM and < 10 nM in the assay on HS 578T breast; 350 nM and < 10 nM in the assay with LOX IMVI melanoma; 163 nM and < 10 nM with MDA-MB-231 breast; 300 nM and < 10 nM in the assay on MOLT-4 leukemia. The GI50 in the assay with NCI-H23 lung was 180 nM and < 10 nM; in the assay on OVCAR-5 ovarian it was 444 nM and < 10 nM; in the assay on OVCAR-8 ovarian, 159 nM and < 10 nM; with RPMI-8226 leukemia, 447 nM and < 10 nM; with SF-268 CNS, 158 nM and < 10 nM; with SN12C renal it was 135 nM and < 10 nM. The GI50 with SW-620 colon was 143 nM and < 10 nM. Further, the TGI with A498 renal was 965 nM and 29.5 µM; with M14 melanoma, 951 nM and > 100 µM; in the assay on OVCAR-3 ovarian, 212 nM and < 10 nM; with SF-539 CNS, 106 nM and < 10 nM.
As for `COc1ccc([C@@]23Oc4cc(OC)cc(OC)c4[C@]2(O)[C@H](O)[C@H](C(N)=O)[C@H]3c2ccccc2)cc1`, the TGI is > 51.2 µM [sample A] and 1.04 µM [sample B] in the assay with A549 NSCLC; 21.6 µM [sample A] and 200 nM [sample B] in the assay with OVCAR-4 ovarian; < 43 nM [sample A] and 562 nM [sample B] in the assay with OVCAR-8 ovarian; 97.7 nM [sample A] and 1.63 µM [sample B] with PC-3 prostate; 1.58 µM [sample A] and 127 nM [sample B] in the assay with RPMI-8226 leukemia; > 39.5 µM [sample A] and 71.2 nM [sample B] in the assay on SK-MEL-28 melanoma. The TGI was > 100 µM [sample A] and 434 nM [sample B] in the assay with SK-OV-3 ovarian; > 100 µM [sample A] and 221 nM [sample B] with SW-620 colon.
`COc1cc2c(c(OC)c1OC)-c1ccc(SC)c(=O)cc1[C@@H](O)CC2`: the TGI in the assay with BT-549 breast is 549 nM and > 100 µM; in the assay with COLO 205 colon, 8.34 nM and > 100 µM; in the assay on EKVX NSCLC, < 101 nM and > 100 µM; with HCT-15 colon, 523 nM and > 100 µM; in the assay on HL-60(TB) leukemia it was 0.767 nM and 43 µM; with HS 578T breast, 224 nM and > 100 µM. The TGI with IGROV1 ovarian was 119 nM and > 100 µM; with KM12 colon, 17.2 nM and > 100 µM; with M14 melanoma, 586 nM and > 100 µM; with MALME-3M melanoma, 0.92 nM and > 100 µM; with MDA-MB-435, 0.506 nM and > 100 µM; in the assay with NCI-H23 lung it was 29.8 nM and > 100 µM. In addition, the TGI in the assay with NCI-H522 lung was 23.9 nM and > 100 µM; in the assay on OVCAR-3 ovarian, > 100 µM [1 test] and 21.2 nM [mean of 2 tests]; with OVCAR-8 ovarian, 224 nM and > 100 µM; in the assay with PC-3 prostate it was 232 nM and > 100 µM; in the assay with SF-268 CNS it was 130 nM and > 100 µM; in the assay on SF-295 CNS it was 6.7 nM and > 100 µM. The TGI in the assay on SF-539 CNS is 51.4 nM and > 100 µM; with SK-MEL-2 melanoma, 67.9 nM and > 100 µM; in the assay with SK-MEL-5 melanoma, 10.9 nM and > 100 µM; in the assay with SK-OV-3 ovarian it was 25.2 nM and > 100 µM; with SR leukemia it was 16.2 nM and > 100 µM; in the assay on U251 CNS, 117 nM and > 100 µM. For the same molecule, the GI50 with RPMI-8226 leukemia was 60.2 nM [1 test] and 1.06 nM [mean of 2 tests].
Consider `O=[N+]([O-])c1cc([N+](=O)[O-])c(Nn2c3ccccc3c3ccccc32)c([N+](=O)[O-])c1`, for which the TGI in the assay on COLO 205 colon is 382 nM [sample A] and 13.1 µM [sample B]; with HL-60(TB) leukemia, 511 nM [sample A] and > 100 µM [sample B]; with HS 578T breast it was > 100 µM [sample A] and 8.47 µM [sample B]; in the assay with M14 melanoma, 2.98 µM [sample A] and > 100 µM [sample B]; in the assay with OVCAR-8 ovarian, > 100 µM [sample A] and 9.91 µM [sample B]; with T-47D breast it was > 100 µM [sample A] and 6.89 µM [sample B].
As to `CCCCCCCCCC[C@H](O)[C@H](O)CC[C@@H](O)[C@H]1CC[C@@H]([C@H]2CC[C@H](CCCCCCC[C@@H](O)CC3=C[C@H](C)OC3=O)O2)O1`, the TGI in the assay on BT-549 breast is 2.08 µM and > 100 µM; in the assay with EKVX NSCLC, 7.15 µM and > 100 µM; in the assay on IGROV1 ovarian, 6.21 µM and 72.8 µM; with MDA-MB-435, 4.84 µM and > 100 µM; with NCI-H226 lung it was 8.07 µM and > 100 µM; in the assay on NCI-H23 lung, 9.32 µM and > 100 µM. Further, the TGI was 4.29 µM and 89.6 µM with SK-MEL-2 melanoma; 5.67 µM and > 100 µM in the assay on SNB-19 CNS.
On to `CC(=O)c1cc(C(=O)c2ccc3c(c2)Sc2ccccc2N3)n2ccccc12`, for which the TGI in the assay on A498 renal is 518 nM and 7.38 µM; in the assay on HCT-116 colon, 282 nM and 5.49 µM; in the assay on HT29 colon, 335 nM and 3.45 µM; in the assay with MDA-MB-231 breast, 432 nM and > 33.2 µM; in the assay on NCI-H460 lung, 157 nM and > 33.2 µM. In addition, the GI50 in the assay on HOP-92 NSCLC was 130 nM and 3.32 nM; in the assay on NCI-H226 lung, 87.3 nM and 931 nM; in the assay with SF-268 CNS, 7.26 nM and 488 nM; with SK-MEL-28 melanoma, 24.2 nM and 502 nM; in the assay on SN12C renal, 8.44 nM and 1.2 µM.
